Data from PubChem BioAssay AID924 (National Center for Advancing Translational Sciences (NCATS), 2007).
Among all 130,000 compounds or so, about 1,200 (0.92%) were called active. The shares of active, inactive and inconclusive entries below differ from those in the screen. Calls follow the shape of the dose curve; as a rule, active = well fitted cell-killing curve with a large enough effect; inconclusive = small, poorly fitted or top-dose-only effect; inactive = no such curve, though single readings can be large or run the other way. A potency beside an inconclusive call is a rough fit, not a confirmed value.

Test: qHTS Screen for Compounds that Selectively Target Cancer Cells with p53 Mutations: Cytotoxicity of p53ts Cells at the Permissive Temperature; also: nearly all actives have a fitted effect of over 55% in size;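 as to activity change, negative = cytotoxicity: 0% = DMSO and -100% = full killing by reference compound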
Conditions: H1299-p53A138V at 32C, ATP luminescence viability, 24 h; activity change, negative = cytotoxicity: at 46.1 µM (top of the series)
In short: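 H1299-p53 A138V cells (temperature-sensitive p53) exposed 24 h to up to 46 uM compound at 32C, where p53 is wild-type in conformation. Viability read as ATP luminescence and normalised to DMSO and 100 uM tamoxifen. AC50 fitted with the Hill equation.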
Potency is read from the fitted curve at half-maximal effect; tags tell the direction and shape of the fitted curve.

Question: With `CC(C)Oc1ccc(N2CC(C(=O)Nc3ccccc3F)CC2=O)cc1` (stereo not drawn) as the molecule, how does the “activity change, negative = cytotoxicity” value read?
Answer: inactive: -1.22%

Question: Which Potency does the source give for `Cc1oc(-c2nc3ccccc3n2C)cc1C(=O)c1ccccc1` here?
Answer: active: 5.01 µM

Question: With `O=C(NCc1ccco1)Nc1ccccc1Cl` as the molecule, how does the Potency read?
Answer: inconclusive: 20 µM [cytotoxic, single point]

Question: Which Potency does the source give for `c1ccc2c(c1)nnn1c3ccccc3nc21` here?
Answer: inconclusive: 15.8 µM [cytotoxic, partial curve]

Question: Which Potency does the source give for `O=C(CSc1nnc(-c2ccc([N+](=O)[O-])cc2)o1)Nc1ccccc1` here?
Answer: inconclusive: 12.6 µM [cytotoxic, partial curve]

Question: With `c1ccc(C(c2ccccc2)N2CCC3(CCNCC3)CC2)cc1` as the molecule, how does the “activity change, negative = cytotoxicity” value read?
Answer: inactive: -10.8%

Question: With `CCOc1ccc(-c2cc(-c3nc(-c4ccc(OC)c(OC)c4)no3)[nH]n2)cc1` as the molecule, how does the Potency read?
Answer: inconclusive: 25.1 µM [cytotoxic, single point]

Question: For `Cc1ccc(C2=Nc3ccccc3N(CC(=O)NCc3ccccc3Cl)C(=O)C2)cc1C`, which Potency is on record?
Answer: inconclusive: 12.6 µM [cytotoxic, single point]

Question: Which Potency does the source give for `CCCCC(=O)Nc1ccc2c(c1)nc1n2CCSC1` here?
Answer: inconclusive: 10 µM [cytotoxic, partial curve]

Question: For `C/C(=N\Nc1nc2ccccc2[nH]1)c1cc2ccccc2o1`, which Potency is on record?
Answer: active: 15.8 µM

Question: Which Potency does the source give for `O=C(O[C@@H](C(=O)O)[C@@H](OC(=O)c1ccccc1)C(=O)O)c1ccccc1` here?
Answer: inconclusive: 0.0079 µM [cytotoxic, full curve, poor fit]

Question: For `Cc1ccc(CCNC(=O)CCS(=O)(=O)c2cc3c(cc2C)NC(=O)CO3)cc1`, which Potency is on record?
Answer: inconclusive: 31.6 µM [cytotoxic, single point]

Question: Which Potency does the source give for `Cc1ccc2nc(-c3ccc(NC(=O)COc4ccccc4)cc3)sc2c1` here?
Answer: inconclusive: 12.6 µM [cytotoxic, partial curve]

Question: With `COc1ccccc1CC(Cc1nc2ccccc2[nH]1)c1nc2ccccc2[nH]1` (stereo not drawn) as the molecule, how does the Potency read?
Answer: inconclusive: 31.6 µM [cytotoxic, single point]

Question: Which “activity change, negative = cytotoxicity” value does the source give for `CC(C)n1c(SCC(=O)Nc2ccc(F)cc2)nc2c(oc3ccccc32)c1=O` here?
Answer: inactive: 13.2%

Question: For `O=C(c1cc(-c2cccc(O)c2)on1)N1CCCCC1`, which Potency is on record?
Answer: inconclusive: 15.8 µM [cytotoxic, partial curve]

Question: For `CNC(=O)c1c[nH]c2ccc(S(=O)(=O)Nc3cccc(Cl)c3C)cc2c1=O`, which Potency is on record?
Answer: inconclusive: 10 µM [cytotoxic, partial curve]

Question: With `CC(=O)Nc1cc(-c2nc3ccccc3s2)ccc1C` as the molecule, how does the Potency read?
Answer: inconclusive: 12.6 µM [cytotoxic, partial curve]

Question: With `Cc1ccc(-c2nn3c(C)nnc3s2)cc1NC(=O)c1ccc(-c2ccc(Cl)cc2Cl)o1` as the molecule, how does the Potency read?
Answer: inconclusive: 20 µM [cytotoxic, single point]

Question: With `O=C(CSc1nnc2[nH]c(=O)cc(-c3ccccc3)n12)Nc1ccc(F)cc1F` as the molecule, how does the Potency read?
Answer: inconclusive: 2 µM [cytotoxic, full curve]

Question: With `Cc1cc(-n2[nH]c(C)c(C)c2=O)nc(-c2ccccc2O)n1` as the molecule, how does the Potency read?
Answer: inconclusive: 15.8 µM [cytotoxic, partial curve]

Question: With `COc1nc(-c2ccc(C)cc2)ccc1-c1noc(-c2ccco2)n1` as the molecule, how does the “activity change, negative = cytotoxicity” value read?
Answer: inactive: -15.3%

Question: Which “activity change, negative = cytotoxicity” value does the source give for `Nc1nc(CSc2nc3ccccc3s2)nc(N2CCCCC2)n1` here?
Answer: inactive: -1.93%

Question: With `COc1ccc(OCC(=O)Nc2cccc(-c3nc4ccccc4s3)c2C)cc1` as the molecule, how does the Potency read?
Answer: inconclusive: 6.31 µM [cytotoxic, partial curve]

Question: With `CC(C)OCCCNc1ncnc2c1[nH]c1ccccc12` as the molecule, how does the Potency read?
Answer: inconclusive: 20 µM [cytotoxic, single point]

Question: Which Potency does the source give for `COc1cccc(-c2ccc3ncnc(N(C)Cc4ccco4)c3c2)c1` here?
Answer: inconclusive: 25.1 µM [cytotoxic, single point]

Question: Which Potency does the source give for `COc1cccc(Cn2c(=O)cnc3cnc(Nc4ccccc4)nc32)c1` here?
Answer: inconclusive: 31.6 µM [cytotoxic, single point]

Question: For `CS(=O)(=O)N1CCC(C(=O)Nc2ccc(F)cc2F)CC1`, which Potency is on record?
Answer: inconclusive: 0.178 µM [cytotoxic, full curve, poor fit]

Question: For `CN1/C(=C/C(=O)c2nc(S(C)(=O)=O)ncc2Cl)C(C)(C)c2ccccc21`, which Potency is on record?
Answer: inconclusive: 25.1 µM [cytotoxic, single point]

Question: For `Cc1nnc(SCCn2c(N3CCCC(C)C3)nc3c2c(=O)n(C)c(=O)n3C)s1` (stereo not drawn), which Potency is on record?
Answer: active: 5.01 µM

Question: With `Cc1cccc(N2C(=O)CC(Sc3nnc(C)s3)C2=O)c1` (stereo not drawn) as the molecule, how does the “activity change, negative = cytotoxicity” value read?
Answer: inactive: -6.24%

Question: Which “activity change, negative = cytotoxicity” value does the source give for `CC1(C)CC2CC(C)(CN2S(=O)(=O)c2ccc(N)cc2)C1` (stereo not drawn) here?
Answer: inactive: -3.92%

Question: With `Cc1ccc2cc3cc(C(=O)N4CCCCC4C)oc3nc2c1` (stereo not drawn) as the molecule, how does the Potency read?
Answer: active: 12.6 µM

Question: For `CCC(=O)NCCn1c(C)cc2ccccc21`, which Potency is on record?
Answer: inconclusive: 20 µM [cytotoxic, single point]

Question: For `CCC(=O)N1CCc2cc(CNC(=O)c3cccc(N(C)C)c3)ccc21`, which “activity change, negative = cytotoxicity” value is on record?
Answer: inactive: 0.272%

Question: Which activity change, negative = cytotoxicity does the source give for `CN1C[C@H](c2ccccc2)C(O)([C@]2(c3ccccc3)CN(C)C[C@@H](c3ccccc3)C2=O)[C@H](c2ccccc2)C1` (stereo partly drawn) here?
Answer: inactive: -7.37% [at 9.22 µM]

Question: Which Potency does the source give for `Cn1c(/C(C#N)=C/c2ccccc2Br)nc2ccccc21` here?
Answer: active: 10 µM

Question: For `Cn1c(=O)c2sccc2n2c(CCCC(=O)Nc3ccc(Oc4ccccc4)cc3)nnc12`, which “activity change, negative = cytotoxicity” value is on record?
Answer: inactive: -0.16%

Question: Which Potency does the source give for `CCCc1cc(=O)n2[nH]c(NCc3c(F)cccc3Cl)nc2n1` here?
Answer: inconclusive: 25.1 µM [cytotoxic, single point]

Question: With `CCc1ccc(-n2nc(CO)c(C(=O)NCCOC)n2)cc1` as the molecule, how does the Potency read?
Answer: inconclusive: 12.6 µM [cytotoxic, partial curve]

Question: With `COc1cc(NC(=O)c2ccccc2)cc(OC)c1` as the molecule, how does the “activity change, negative = cytotoxicity” value read?
Answer: inactive: -3.35%

Question: With `Nc1nc(SCC(=O)c2ccc(Br)cc2)c2[nH]cnc2n1` as the molecule, how does the activity change, negative = cytotoxicity read?
Answer: inactive: 15.3% [at 9.22 µM]

Question: For `O=C(NCc1ccco1)c1ccc(Cn2c(SCc3ccccc3)nc3cccnc32)cc1`, which Potency is on record?
Answer: inconclusive: 17.8 µM [cytotoxic, single point]

Question: For `CC(=O)c1ccc(NC(=O)C2CCN(c3nnc(C)c4c(C)n(-c5ccccc5)nc34)CC2)cc1`, which Potency is on record?
Answer: inconclusive: 31.6 µM [cytotoxic, single point]

Question: Which “activity change, negative = cytotoxicity” value does the source give for `CCN(CCCNC(=O)CN(C)S(=O)(=O)c1cccc2nsnc12)c1cccc(C)c1` here?
Answer: inactive: 0.294%

Question: For `Cc1ccc(CN(C(=O)COc2ccccc2Cl)c2ccccn2)o1`, which Potency is on record?
Answer: inconclusive: 12.6 µM [cytotoxic, partial curve]

Question: With `COc1ccc(Nc2c3c(nc4ccccc24)CCC3)cc1Cl` as the molecule, how does the Potency read?
Answer: inconclusive: 15.8 µM [cytotoxic, single point]

Question: With `CCOc1ccc(NC(=O)Cn2c(=O)n(Cc3ccc4c(c3)OCO4)c(=O)c3ccc(C(=O)NC4CCCCC4)cc32)cc1` as the molecule, how does the “activity change, negative = cytotoxicity” value read?
Answer: inactive: 6.85%

Question: Which Potency does the source give for `CC(=O)c1cccc(NC(=O)c2cnn3ccccc23)c1` here?
Answer: inconclusive: 20 µM [cytotoxic, partial curve]

Question: With `CNC(=O)CCc1nc(-c2ccc(C(C)(C)C)cc2)no1` as the molecule, how does the Potency read?
Answer: active: 12.6 µM

Question: Which “activity change, negative = cytotoxicity” value does the source give for `CCOC(=O)c1ccc(NC(=O)Cn2c(=O)cc(C)c3c(C)nn(-c4ccc(CC)cc4)c32)cc1` here?
Answer: inactive: 1.93%

Question: With `CCN(CC)c1cc(C)c2cc(NC(=O)/C=C/c3cc(OC)c(OC)c(OC)c3)ccc2n1` as the molecule, how does the Potency read?
Answer: inconclusive: 31.6 µM [cytotoxic, single point]

Question: Which Potency does the source give for `Nc1ccc(N2CCCCCC2)cc1` here?
Answer: inconclusive: 15.8 µM [cytotoxic, single point]

Question: For `CCc1ccc(N(C)S(=O)(=O)c2ccc3[nH]cc(C(=O)NCC4CCCO4)c(=O)c3c2)cc1` (stereo not drawn), which Potency is on record?
Answer: inconclusive: 14.1 µM [cytotoxic, partial curve, poor fit]

Question: Which Potency does the source give for `O=C(CSc1ccc2c(c1)OCCO2)Nc1ccc(Cl)cn1` here?
Answer: inconclusive: 31.6 µM [cytotoxic, single point]

Question: With `O=C(NC1=NC2CCCCC2N1)c1ccccc1` (stereo not drawn) as the molecule, how does the Potency read?
Answer: inconclusive: 2 µM [cytotoxic, full curve]

Question: For `CCOC(=O)c1ccc(NS(=O)(=O)c2ccc3[nH]c4c(c3c2)CCCCC4)cc1`, which Potency is on record?
Answer: inconclusive: 35.5 µM [cytotoxic, single point]

Question: For `Cn1nnnc1SCCCNCc1cccc(OCc2ccccc2Cl)c1`, which Potency is on record?
Answer: inconclusive: 35.5 µM [cytotoxic, single point]

Question: For `CCCc1cc(C(=O)Nc2nnc(C)s2)cs1`, which Potency is on record?
Answer: inconclusive: 20 µM [cytotoxic, single point]

Question: Which Potency does the source give for `COc1ccc2c(c1OC)C(=O)N(c1cccc(C)c1)C2` here?
Answer: active: 7.94 µM

Question: Which “activity change, negative = cytotoxicity” value does the source give for `Cc1cccc(NC(=O)C2CCCN(c3nc4ccccc4s3)C2)c1C` (stereo not drawn) here?
Answer: inactive: 12.2%

Question: For `Cc1ccc(C)c(N2CCN(CCCNC(=O)Nc3ccc(Cl)cc3)CC2)c1`, which Potency is on record?
Answer: inconclusive: 31.6 µM [cytotoxic, single point]

Question: With `COc1cccc(C2=CC(c3ccccc3F)n3c(nc4ccccc43)N2)c1` (stereo not drawn) as the molecule, how does the Potency read?
Answer: active: 15.8 µM

Question: Which “activity change, negative = cytotoxicity” value does the source give for `O=C(CSc1nc2ccsc2c(=O)n1Cc1ccccc1Cl)NCc1ccc(Cl)cc1` here?
Answer: inactive: 0.529%

Question: For `CCc1ccc2c(c1)c(=O)c(S(=O)(=O)c1ccccc1)cn2CC(=O)Nc1ccc(OC)cc1`, which “activity change, negative = cytotoxicity” value is on record?
Answer: inactive: 10.7%

Question: Which “activity change, negative = cytotoxicity” value does the source give for `Cc1cc(C(=O)COC(=O)CN(C)S(=O)(=O)c2ccc(Cl)cc2)c(C)n1CC1CCCO1` (stereo not drawn) here?
Answer: inactive: -4.67%

Question: For `CCOc1cccc(C(=O)Nc2nnc(-c3ccco3)s2)c1`, which Potency is on record?
Answer: inconclusive: 7.94 µM [cytotoxic, partial curve]

Question: For `COc1ccc(NC(=O)c2ccco2)cc1NC(=O)COc1ccc(Cl)cc1C`, which Potency is on record?
Answer: inconclusive: 10 µM [cytotoxic, partial curve]

Question: For `CCN1C=CC(=C2C(=O)c3ccccc3C2=O)C=C1`, which Potency is on record?
Answer: active: 0.251 µM

Question: With `CCOc1ccc(/C=C/C(=O)c2cccs2)cc1` as the molecule, how does the Potency read?
Answer: active: 25.1 µM

Question: Which Potency does the source give for `CC(C)C(=O)Nc1ccc(-c2nc3cccnc3o2)cc1` here?
Answer: active: 10 µM

Question: For `CCCC(=O)Nc1ccc(C(=O)N2CCCC2)cc1`, which “activity change, negative = cytotoxicity” value is on record?
Answer: inactive: 1.9%

Question: Which “activity change, negative = cytotoxicity” value does the source give for `CCCCOc1cccc(OCCCC)c1C(=O)Nc1cc(C)on1` here?
Answer: inactive: 12.2%
